Assay results as given in US20250262222A1, “HETEROCYCLIC COMPOUNDS, COMPOSITIONS THEREOF, AND METHODS OF TREATMENT THEREWITH” (BeiGene Switzerland GmbH, priority 2022, published 2025).

Tests used:
[1] = target: GST-tagged GDP-loaded WT KRAS (amino acids 1-188) (Homo sapiens, UniProt P01116); assay: biochemical
[2] = target: GST-tagged GDP-loaded KRAS G12D (amino acids 1-188) (Homo sapiens, UniProt P01116, G12D); assay: biochemical

**Q.** With `CC12CCC(COc3nc4c5c(nc(-c6cc(N)cc(Cl)c6C(F)(F)F)c(F)c5n3)OCC[C@@H]3[C@@H]5CC[C@H](CN43)N5)(CO1)C2` [Example 36, 3-chloro-5-((6aR,7S,10R)-1-fluoro-13-((1-methyl-2-oxabicyclo[2.2.1]heptan-4-yl)methoxy)-5,6,6a,7,8,9,10,11-octahydro-4-oxa-3,11a,12,14,15-pentaaza-7,10-methanocyclohepta[4,5]cyclo-octa[1,2,3-de]naphthalen-2-yl)-4-(trifluoromethyl)aniline] as the molecule, how does the IC50 [1] read?
**A.** The IC50 was 166 nM.

**Q.** And the IC50 [2]?
**A.** Its IC50 is 0.81 nM.

**Q.** What does the source list for `Nc1cc(Cl)c(C(F)(F)F)c(-c2nc3c4c(nc(OCC56COCC(F)(C5)C6)nc4c2F)N2C[C@H]4CC[C@H](N4)[C@H]2CCO3)c1` [Example 37, 3-chloro-5-((6aR,7S,10R)-1-fluoro-13-((5-fluoro-3-oxabicyclo[3.1.1]heptan-1-yl)methoxy)-5,6,6a,7,8,9,10,11-octahydro-4-oxa-3,11a,12,14,15-pentaaza-7,10-methanocyclohepta[4,5]cyclo-octa[1,2,3-de]naphthalen-2-yl)-4-(trifluoromethyl)aniline]?
**A.** IC50 [1]: 205 nM; IC50 [2]: 0.53 nM

**Q.** For `Oc1cc(Cl)c(C2CC2)c(-c2nc3c4c(nc(OCC56COC(C5)C6)nc4c2F)N2C[C@H]4CC[C@H](N4)[C@H]2CCO3)c1` [Example 38, 3-((6aR,7S,10R)-13-((2-oxabicyclo[2.1.1]hexan-4-yl)methoxy)-1-fluoro-5,6,6a,7,8,9,10,11-octahydro-4-oxa-3,11a,12,14,15-pentaaza-7,10-methanocyclohepta[4,5]cyclo-octa[1,2,3-de]naphthalen-2-yl)-5-chloro-4-cyclopropylphenol], which IC50 [1] is on record?
**A.** The IC50 was greater than 1000 nM.

**Q.** And the IC50 [2]?
**A.** The IC50 was 3.6 nM.

**Q.** `COCC12CC(COc3nc4c5c(nc(-c6cc(N)cc(Cl)c6C(F)(F)F)c(F)c5n3)OCC[C@@H]3[C@@H]5CC[C@H](CN43)N5)(CO1)C2` [Example 39, 3-chloro-5-((6aR,7S,10R)-1-fluoro-13-((1-(methoxymethyl)-2-oxabicyclo[2.1.1]hexan-4-yl)methoxy)-5,6,6a,7,8,9,10,11-octahydro-4-oxa-3,11a,12,14,15-pentaaza-7,10-methanocyclohepta[4,5]cyclo-octa[1,2,3-de]naphthalen-2-yl)-4-(trifluoromethyl)aniline] was tested. Which IC50 [1] did it give?
**A.** Its IC50 is 292 nM.

**Q.** What about the IC50 [2] of the same molecule?
**A.** Its IC50 is 0.47 nM.

**Q.** Which results are given for `Nc1cc(Cl)c(C(F)(F)F)c(-c2nc3c4c(nc(OCC56CCC(CC5)OC6)nc4c2F)N2C[C@H]4CC[C@H](N4)[C@H]2CCO3)c1` [Example 40, 3-((6aR,7S,10R)-13-((2-oxabicyclo[2.2.2]octan-4-yl)methoxy)-1-fluoro-5,6,6a,7,8,9,10,11-octahydro-4-oxa-3,11a,12,14,15-pentaaza-7,10-methanocyclohepta[4,5]cyclo-octa[1,2,3-de]naphthalen-2-yl)-5-chloro-4-(trifluoromethyl)aniline]?
**A.** IC50 [1]: 430 nM; IC50 [2]: 1.1 nM

**Q.** Which results are given for `Nc1cc(Cl)c(C(F)(F)F)c(-c2nc3c4c(nc(OCC56CCC(C5)OC6)nc4c2F)N2C[C@H]4CC[C@H](N4)[C@H]2CCO3)c1` [Example 41, 3-((6aR,7S,10R)-13-((2-oxabicyclo[2.2.1]heptan-4-yl)methoxy)-1-fluoro-5,6,6a,7,8,9,10,11-octahydro-4-oxa-3,11a,12,14,15-pentaaza-7,10-methanocyclohepta[4,5]cyclo-octa[1,2,3-de]naphthalen-2-yl)-5-chloro-4-(trifluoromethyl)aniline]?
**A.** IC50 [1]: 125 nM; IC50 [2]: 0.51 nM

**Q.** Which results are given for `COC(=O)N1CC(C)(COc2nc3c4c(nc(-c5cc(N)cc(C)c5C(F)(F)F)c(F)c4n2)OCC[C@@H]2[C@@H]4CC[C@H](CN32)N4)C1` [Example 43, methyl 3-((((6aR,7S,10R)-2-(5-amino-3-methyl-2-(trifluoromethyl)phenyl)-1-fluoro-5,6,6a,7,8,9,10,11-octahydro-4-oxa-3,11a,12,14,15-pentaaza-7,10-methanocyclohepta[4,5]cyclo-octa[1,2,3-de]naphthalen-13-yl)oxy)methyl)-3-methylazetidine-1-carboxylate]?
**A.** IC50 [1]: 585 nM; IC50 [2]: 2.5 nM

**Q.** What does the source list for `C[C@](O)(COc1nc2c3c(nc(-c4cc(N)cc(Cl)c4C(F)(F)F)c(F)c3n1)OCC[C@@H]1[C@@H]3CC[C@H](CN21)N3)C(F)(F)F` [Example 44, (S)-3-(((6aR,7S,10R)-2-(5-amino-3-chloro-2-(trifluoromethyl)phenyl)-1-fluoro-5,6,6a,7,8,9,10,11-octahydro-4-oxa-3,11a,12,14,15-pentaaza-7,10-methanocyclohepta[4,5]cyclo-octa[1,2,3-de]naphthalen-13-yl)oxy)-1,1,1-trifluoro-2-methylpropan-2-ol]?
**A.** IC50 [1]: > 1000 nM; IC50 [2]: 5.2 nM

**Q.** Which results are given for `Nc1cc(Cl)c(C(F)(F)F)c(-c2nc3c4c(nc(OCC56CCC(COC5)C6)nc4c2F)N2C[C@H]4CC[C@H](N4)[C@H]2CCO3)c1` [Example 45, 3-((6aR,7S,10R)-13-((3-oxabicyclo[3.2.1]octan-1-yl)methoxy)-1-fluoro-5,6,6a,7,8,9,10,11-octahydro-4-oxa-3,11a,12,14,15-pentaaza-7,10-methanocyclohepta[4,5]cyclo-octa[1,2,3-de]naphthalen-2-yl)-5-chloro-4-(trifluoromethyl)aniline]?
**A.** IC50 [1]: 298 nM; IC50 [2]: 0.63 nM

**Q.** With `CN1C(=O)OC2CC1(COc1nc3c4c(nc(-c5cc(N)cc(Cl)c5C(F)(F)F)c(F)c4n1)OCC[C@@H]1[C@@H]4CC[C@H](CN31)N4)C2` [Example 46, 5-((((6aR,7S,10R)-2-(5-amino-3-chloro-2-(trifluoromethyl)phenyl)-1-fluoro-5,6,6a,7,8,9,10,11-octahydro-4-oxa-3,11a,12,14,15-pentaaza-7,10-methanocyclohepta[4,5]cyclo-octa[1,2,3-de]naphthalen-13-yl)oxy)methyl)-4-methyl-2-oxa-4-azabicyclo[3.1.1]heptan-3-one] as the molecule, how does the IC50 [1] read?
**A.** Its IC50 is 246 nM.

**Q.** What about the IC50 [2] of the same molecule?
**A.** The IC50 was 0.84 nM.

**Q.** Which results are given for `CN1C(=O)OC2(C)CC1(COc1nc3c4c(nc(-c5cc(N)cc(Cl)c5C(F)(F)F)c(F)c4n1)OCC[C@@H]1[C@@H]4CC[C@H](CN31)N4)C2` [Example 47, 5-((((6aR,7S,10R)-2-(5-amino-3-chloro-2-(trifluoromethyl)phenyl)-1-fluoro-5,6,6a,7,8,9,10,11-octahydro-4-oxa-3,11a,12,14,15-pentaaza-7,10-methanocyclohepta[4,5]cyclo-octa[1,2,3-de]naphthalen-13-yl)oxy)methyl)-1,4-dimethyl-2-oxa-4-azabicyclo[3.1.1]heptan-3-one]?
**A.** IC50 [1]: 154 nM; IC50 [2]: 0.26 nM

**Q.** How did the IC50 [1] turn out when `CC12COCC(COc3nc4c5c(nc(-c6cc(N)cc(Cl)c6C(F)(F)F)c(F)c5n3)OCC[C@@H]3[C@@H]5CC[C@H](CN43)N5)(C1)C2` [Example 48, 3-chloro-5-((6aR,7S,10R)-1-fluoro-13-((5-methyl-3-oxabicyclo[3.1.1]heptan-1-yl)methoxy)-5,6,6a,7,8,9,10,11-octahydro-4-oxa-3,11a,12,14,15-pentaaza-7,10-methanocyclohepta[4,5]cyclo-octa[1,2,3-de]naphthalen-2-yl)-4-(trifluoromethyl)aniline] was run?
**A.** Its IC50 is 649 nM.

**Q.** What about the IC50 [2] of the same molecule?
**A.** Its IC50 is 2.5 nM.

**Q.** What does the source list for `Cc1cc(N)cc(-c2nc3c4c(nc(OCC56COC(CF)(C5)C6)nc4c2F)N2C[C@H]4CC[C@H](N4)[C@H]2CCO3)c1C(F)(F)F` [Example 49, 3-((6aR,7S,10R)-1-fluoro-13-((1-(fluoromethyl)-2-oxabicyclo[2.1.1]hexan-4-yl)methoxy)-5,6,6a,7,8,9,10,11-octahydro-4-oxa-3,11a,12,14,15-pentaaza-7,10-methanocyclohepta[4,5]cyclo-octa[1,2,3-de]naphthalen-2-yl)-5-methyl-4-(trifluoromethyl)aniline]?
**A.** IC50 [1]: 444 nM; IC50 [2]: 2.1 nM

**Q.** How did the IC50 [1] turn out when `Nc1cc(Cl)c(C(F)(F)F)c(-c2nc3c4c(nc(OCC56COC(CF)(C5)C6)nc4c2F)N2C[C@H]4CC[C@H](N4)[C@H]2CCO3)c1` [Example 50, 3-chloro-5-((6aR,7S,10R)-1-fluoro-13-((1-(fluoromethyl)-2-oxabicyclo[2.1.1]hexan-4-yl)methoxy)-5,6,6a,7,8,9,10,11-octahydro-4-oxa-3,11a,12,14,15-pentaaza-7,10-methanocyclohepta[4,5]cyclo-octa[1,2,3-de]naphthalen-2-yl)-4-(trifluoromethyl)aniline] was run?
**A.** Its IC50 is 160 nM.

**Q.** And the IC50 [2]?
**A.** Its IC50 is 0.34 nM.

**Q.** How did the IC50 [1] turn out when `Cc1cc(N)cc(-c2nc3c4c(nc(OCC56CCC(C)(C5)OC6)nc4c2F)N2C[C@H]4CC[C@H](N4)[C@H]2CCO3)c1C(F)(F)F` [Example 51, 3-((6aR,7S,10R)-1-fluoro-13-((1-methyl-2-oxabicyclo[2.2.1]heptan-4-yl)methoxy)-5,6,6a,7,8,9,10,11-octahydro-4-oxa-3,11a,12,14,15-pentaaza-7,10-methanocyclohepta[4,5]cyclo-octa[1,2,3-de]naphthalen-2-yl)-5-methyl-4-(trifluoromethyl)aniline] was run?
**A.** Its IC50 is greater than 1000 nM.

**Q.** And the IC50 [2]?
**A.** Its IC50 is 2.9 nM.

**Q.** For `C#Cc1c(F)ccc2cc(O)cc(-c3nc4c5c(nc(OCC67COC(C(F)F)(C6)C7)nc5c3F)N3C[C@H]5CC[C@H](N5)[C@H]3CCO4)c12` [Example 52, 4-((6aR,7S,10R)-13-((1-(difluoromethyl)-2-oxabicyclo[2.1.1]hexan-4-yl)methoxy)-1-fluoro-5,6,6a,7,8,9,10,11-octahydro-4-oxa-3,11a,12,14,15-pentaaza-7,10-methanocyclohepta[4,5]cyclo-octa[1,2,3-de]naphthalen-2-yl)-5-ethynyl-6-fluoronaphthalen-2-ol], which IC50 [1] is on record?
**A.** Its IC50 is 13 nM.

**Q.** And the IC50 [2]?
**A.** Its IC50 is 0.22 nM.

**Q.** For `Nc1cc(Cl)c(C(F)(F)F)c(-c2nc3c4c(nc(OCC56COC(C(F)(F)F)(C5)C6)nc4c2F)N2C[C@H]4CC[C@H](N4)[C@H]2CCO3)c1` [Example 53, 3-chloro-5-((6aR,7S,10R)-1-fluoro-13-((1-(trifluoromethyl)-2-oxabicyclo[2.1.1]hexan-4-yl)methoxy)-5,6,6a,7,8,9,10,11-octahydro-4-oxa-3,11a,12,14,15-pentaaza-7,10-methanocyclohepta[4,5]cyclo-octa[1,2,3-de]naphthalen-2-yl)-4-(trifluoromethyl)aniline], which IC50 [1] is on record?
**A.** Its IC50 is 255 nM.

**Q.** And the IC50 [2]?
**A.** The IC50 was 0.81 nM.
